Laboratory results as given in PubChem BioAssay AID1745853 (National Center for Advancing Translational Sciences (NCATS), 2022).
The list shows a part of the results. The main result of the screen is listed elsewhere. These columns were measured beside it and carry no call.

How the values were obtained:
Test in all cases: Primary Screen for Target Class Profiling of Small Molecule Inhibitors of Methyltransferases
[1] = target: Glycine N-methyltransferase (Homo sapiens) (UniProt Q14749); settings: purified enzyme, MTase-Glo SAH luminescence; measured here: GNMT inhibition; at 40 µM; stronger effect = lower value
How it was run: (§1)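 Each enzyme was assayed with SAM and its substrate. SAH formation detected by MTase-Glo luminescence; single-point 40 uM screen[…].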

[2] = target: Guanidinoacetate N-methyltransferase (Homo sapiens) (UniProt Q14353); settings: purified enzyme, MTase-Glo SAH luminescence; measured here: GAMT inhibition; at 40 µM; stronger effect = lower value
How it was run: as §1

[3] = target: Histamine N-methyltransferase (Homo sapiens) (UniProt P50135); settings: purified enzyme, MTase-Glo SAH luminescence; measured here: HNMT inhibition; at 40 µM; stronger effect = lower value
How it was run: as §1

[4] = target: Nicotinamide N-methyltransferase (Homo sapiens) (UniProt P40261); settings: purified enzyme, MTase-Glo SAH luminescence; measured here: NNMT inhibition; at 40 µM; stronger effect = lower value
How it was run: as §1

[5] = target: Phenylethanolamine N-methyltransferase (Homo sapiens) (UniProt P11086); settings: purified enzyme, MTase-Glo SAH luminescence; measured here: PNMT inhibition; at 40 µM; stronger effect = lower value
How it was run: as §1
On the % scale 0 is the no-effect control and ±100 the full control effect.

| SMILES | activity change, negative = inhibition [1] | activity change, negative = inhibition [2] | activity change, negative = inhibition [3] | activity change, negative = inhibition [4] | activity change, negative = inhibition [5] |
| --- | --- | --- | --- | --- | --- |
| CCCc1nc(CN(CC)C(=O)c2ccc(NC(=O)C3CCC3)cc2)no1 | -3.74% | -3.16% | -1.17% | -7.32% | -2.96% |
| NCC(=O)N[C@H]1CN(c2nccc(C(F)(F)F)n2)C[C@@H]1C1CC1 | -3.72% | -4.47% | -0.538% | -11.6% | -19.2% |
| CCC(C)NC(=O)c1ccc2c(=O)n(C)c3nn(Cc4cccc(Cl)c4)c(=O)n3c2c1 (stereo not given) | 1.83% | 2.75% | 7.61% | -0.539% | 4.99% |
| NCC(O)c1ccc(O)c(O)c1 (stereo not given) | -63.6% | 1.5% | -6.22% | -8.94% | 2.68% |
| COC(=O)c1cc2n(n1)CC(C)(C(=O)NC1CCC(C)CC1)N(Cc1ccc(OC(C)C)cc1)C2=O (stereo not given) | -2.86% | 1.34% | 1.78% | -12% | -2.3% |
| COc1ccc2c(c1)C(C(=O)Nc1ccc(C)c([S+](=O)([O-])N3CCOCC3)c1)=CC(C)(C)CO2 | -0.951% | 1.52% | 0.647% | -5.39% | 13.6% |
| CN(CC(=O)NCc1ccc(F)cc1)S(=O)(=O)c1ccc2[nH]c3c(c2c1)CCCC3 | 3.32% | 1.61% | 0.602% | 4.15% | 2.75% |
| Cc1cnn(C(C)c2nc(-c3ccc(C)nn3)no2)c1 (stereo not given) | -1.94% | -2.96% | 0.642% | -4.95% | -1.13% |
| O=c1ccc2c(OCCCCc3ccccc3)c3ccoc3cc2o1 | -13.7% | 7.25% | -2.23% | -4.12% | 7.23% |
| COc1ccc(CNc2nc3c(-c4cccc(F)c4)nnn3c3ccccc23)cc1 | 0.353% | -0.624% | -2.12% | -15.9% | -7.78% |
| COC(=O)c1cccc(NC(=O)N2Cc3c(sc4c3CCCC4)-n3cccc3C2c2cccc(F)c2)c1 (stereo not given) | -2.08% | 0% | 4.74% | -0.921% | 4.12% |
| CCn1cc(C(=O)O)c(=O)c2cc(F)c(N3CCNC(C)C3)c(F)c21 (stereo not given) | 4.17% | 13.7% | -2.15% | 1.56% | 11.3% |
| CC(=O)OC(C)(C)/C=C/C(=O)C(C)(O)C1C(O)CC2(C)C3CC=C(C(C)(C)C(=O)O)C(CC(=O)O)C3(C)C(=O)CC12C (stereo not given) | 0% | -0.043% | 4.38% | -10.6% | 6.53% |
| Nc1nc2c(c(N3CC[C@@H](N)C3)n1)CCCc1ccccc1-2 | 1.03% | 5.04% | -17.3% | -18.3% | 3.26% |
| CC(=O)N1CCN(CC[C@H]2CN(C(=O)c3ccc(N(C)C)cc3)CC[C@H]2CC(=O)O)CC1 | -6.62% | -6.83% | -3.34% | -5.71% | -4.26% |
| CS(=O)(=O)Nc1ccc([N+](=O)[O-])cc1Oc1ccccc1 | -11.7% | 4.95% | -1.18% | -7.74% | 7.73% |
| CC1=C[C@@H](CN(CC2CC2)CC2CC2)[C@H](C(C)C)C[C@H]1Cc1nc2ccncc2[nH]1 | -2.22% | -0.387% | -83.3% | -25.9% | 3.57% |
| CCCCN1C(=O)c2ccc(-c3ccccc3)n2CC1(C)C(=O)NC1CCCCC1 (stereo not given) | 3.86% | 0% | 3.76% | 0.402% | 3.35% |
| CCc1ccc(N2C(=O)c3cc(-c4ccc(OC)cc4)nn3CC2(C)C(=O)NC2CCCCC2)cc1 (stereo not given) | -3.56% | 4.28% | -3.47% | -3.62% | -7.13% |
